PubChem BioAssay (NCI)
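Step 1: Grow cells in 96-well plates. Step 2: Expose to compound for 48 hours at 5 concentrations. Step 3: Interpolate endpoints linearly; if unreached, use highest concentration. TGI: concentration producing complete growth inhibition.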 Certain results were filed several times, with different values. This list holds those alone. An entry can have further records. The tests behind the records often covered other concentration ranges, which the source does not state; a value can be the end of its range. What stands in brackets tells the records apart. Letters hold for one entry only.

How the values were obtained:
Test in all cases: NCI-60 cell line screen, 48 h
786-0 renal = system: 786-0 renal
A498 renal = system: A498 renal
A549 NSCLC = system: A549 NSCLC
ACHN renal = system: ACHN renal
BT-549 breast = system: BT-549 breast
CAKI-1 renal = system: CAKI-1 renal
CCRF-CEM leukemia = system: CCRF-CEM leukemia
COLO 205 colon = system: COLO 205 colon
EKVX NSCLC = system: EKVX NSCLC
HCC-2998 colon = system: HCC-2998 colon
HCT-116 colon = system: HCT-116 colon
HCT-15 colon = system: HCT-15 colon
HL-60(TB) leukemia = system: HL-60(TB) leukemia
HOP-62 NSCLC = system: HOP-62 NSCLC
HOP-92 NSCLC = system: HOP-92 NSCLC
HS 578T breast = system: HS 578T breast
HT29 colon = system: HT29 colon
IGROV1 ovarian = system: IGROV1 ovarian
K-562 leukemia = system: K-562 leukemia
KM12 colon = system: KM12 colon
LOX IMVI melanoma = system: LOX IMVI melanoma
M14 melanoma = system: M14 melanoma
MALME-3M melanoma = system: MALME-3M melanoma
MCF7 breast = system: MCF7 breast
MDA-MB-231 breast = system: MDA-MB-231 breast
MOLT-4 leukemia = system: MOLT-4 leukemia
NCI-H226 lung = system: NCI-H226 lung
NCI-H23 lung = system: NCI-H23 lung
NCI-H522 lung = system: NCI-H522 lung
NCI/ADR-RES ovarian = system: NCI/ADR-RES ovarian
OVCAR-3 ovarian = system: OVCAR-3 ovarian
OVCAR-4 ovarian = system: OVCAR-4 ovarian
OVCAR-5 ovarian = system: OVCAR-5 ovarian
OVCAR-8 ovarian = system: OVCAR-8 ovarian
PC-3 prostate = system: PC-3 prostate
RPMI-8226 leukemia = system: RPMI-8226 leukemia
RXF 393 renal = system: RXF 393 renal
SK-MEL-2 melanoma = system: SK-MEL-2 melanoma
SK-MEL-5 melanoma = system: SK-MEL-5 melanoma
SN12C renal = system: SN12C renal
SR leukemia = system: SR leukemia
T-47D breast = system: T-47D breast
TK-10 renal = system: TK-10 renal
UACC-257 melanoma = system: UACC-257 melanoma
UACC-62 melanoma = system: UACC-62 melanoma
UO-31 renal = system: UO-31 renal

CC/C(=C(\c1ccccc1)c1ccc(OCCN(C)C)cc1)c1ccccc1
TGI (786-0 renal): > 25 µM, 11.2 µM, 6.11 µM, 8.55 µM [sample A] and 10.9 µM [sample B]
TGI (A498 renal): > 25 µM, 16.9 µM, 40.8 µM, 9.15 µM [sample A] and 10.1 µM [sample B]
TGI (A549 NSCLC): > 25 µM, 11.9 µM, 37.3 µM, 11.1 µM, 12 µM [sample A] and 10 µM [sample B]
TGI (ACHN renal): > 25 µM, 15.5 µM, 27.6 µM, 14.1 µM [sample A] and 12.9 µM [sample B]
TGI (BT-549 breast): > 25 µM, 19.2 µM, 16 µM, 13.3 µM, 7.61 µM [sample A] and 14.8 µM [sample B]
TGI (CAKI-1 renal): 25.2 µM [sample A, 1 test] and 14.2 µM [sample A, mean of 14 tests] and > 25 µM, 17 µM [sample A, mean of 2 tests] and 11.2 µM [sample A, mean of 8 tests] and 10.9 µM [sample B, 1 test]
TGI (CCRF-CEM leukemia): > 25 µM, 9.77 µM, 18.7 µM, 32.2 µM [sample A] and 9.44 µM [sample B]
TGI (COLO 205 colon): > 25 µM, 5.32 µM, 7.45 µM, 8.01 µM, 9.16 µM [sample A] and 1.75 µM [sample B]
TGI (EKVX NSCLC): > 25 µM, 20.2 µM, 27.3 µM, 13.9 µM, 18.1 µM [sample A] and 11.6 µM [sample B]
TGI (HCC-2998 colon): > 25 µM, 6.31 µM, 11.8 µM, 7.95 µM, 7.76 µM [sample A] and 3.74 µM [sample B]
TGI (HCT-116 colon): > 25 µM, 13.7 µM, 12.9 µM, 10.6 µM, 9.71 µM [sample A] and 8.29 µM [sample B]
TGI (HCT-15 colon): > 25 µM, 10.3 µM, 11.2 µM, 9.09 µM, 9.23 µM [sample A] and 7.43 µM [sample B]
TGI (HL-60(TB) leukemia): 5.11 µM [sample A, 1 test] and 9.54 µM [sample A, mean of 13 tests] and > 25 µM [sample A, mean of 2 tests] and 32.2 µM [sample A, mean of 6 tests] and 3.71 µM [sample B, 1 test]
TGI (HOP-62 NSCLC): > 25 µM, 21.8 µM, 34.8 µM, 8.64 µM, 10.9 µM [sample A] and 11.8 µM [sample B]
TGI (HOP-92 NSCLC): 25, 12.5, 21.4, 9.41, 10.6 µM [sample A] and 8.2 µM [sample B]
TGI (HS 578T breast): > 25 µM, 11.6 µM, 11.3 µM, 12.9 µM, 11.1 µM [sample A] and 14.4 µM [sample B]
TGI (HT29 colon): > 25 µM, 5.67 µM, 4.7 µM, 7.4 µM, 6.35 µM [sample A] and 2.69 µM [sample B]
TGI (IGROV1 ovarian): > 25 µM, 13.7 µM, 125 µM, 11.1 µM, 10.9 µM [sample A] and 11.4 µM [sample B]
TGI (K-562 leukemia): > 25 µM, 6.63 µM, 6.06 µM, 71.7 µM [sample A] and 6.23 µM [sample B]
TGI (KM12 colon): 5.21 µM [sample A, 1 test] and 7.37 µM [sample A, mean of 14 tests] and > 25 µM, 12.7 µM [sample A, mean of 2 tests] and 7.42 µM [sample A, mean of 7 tests] and 8.8 µM [sample B, 1 test]
TGI (LOX IMVI melanoma): > 25 µM, 4.49 µM, 3.98 µM, 7.83 µM, 5.96 µM [sample A] and 5.83 µM [sample B]
TGI (M14 melanoma): > 25 µM, 5.21 µM, 5.91 µM, 8.05 µM, 5.72 µM [sample A] and 2.13 µM [sample B]
TGI (MALME-3M melanoma): 4.6 µM [sample A, 1 test] and 7.49 µM [sample A, mean of 14 tests] and > 25 µM, 10.7 µM [sample A, mean of 2 tests] and 8.21 µM [sample A, mean of 4 tests] and 7.42 µM [sample B, 1 test]
TGI (MCF7 breast): 25, 6.81, 5.85, 7.41, 9.33 µM [sample A] and 6.98 µM [sample B]
TGI (MDA-MB-231 breast): > 25 µM, 17.3 µM, 15 µM, 9.45 µM, 10.4 µM [sample A] and 10.5 µM [sample B]
TGI (MOLT-4 leukemia): > 25 µM, 8.78 µM, 8.33 µM, 15.8 µM [sample A] and 10.5 µM [sample B]
TGI (NCI-H226 lung): > 25 µM, 27.5 µM, 23.8 µM, 12.1 µM, 11.6 µM [sample A] and 13.4 µM [sample B]
TGI (NCI-H23 lung): > 25 µM, 16.1 µM, 34.2 µM, 11.2 µM, 12 µM [sample A] and 11.4 µM [sample B]
TGI (NCI-H522 lung): 42.7 µM [sample A, 1 test] and 16.6 µM [sample A, mean of 12 tests] and > 25 µM, 9.99 µM [sample A, mean of 2 tests] and 8.34 µM [sample A, mean of 4 tests] and 4.96 µM [sample B, 1 test]
TGI (NCI/ADR-RES ovarian): > 25 µM, 14.2 µM, 21.3 µM, 10.5 µM, 13.7 µM [sample A] and 10.3 µM [sample B]
TGI (OVCAR-3 ovarian): > 25 µM, 11 µM, 25.5 µM, 9.65 µM, 10.2 µM [sample A] and 9.37 µM [sample B]
TGI (OVCAR-4 ovarian): > 25 µM, 15.6 µM, 35.9 µM, 9.94 µM, 14.5 µM [sample A] and 13 µM [sample B]
TGI (OVCAR-5 ovarian): 51.7 µM [sample A, 1 test] and 16 µM [sample A, mean of 14 tests] and > 25 µM, 15.7 µM [sample A, mean of 2 tests] and 9.81 µM [sample A, mean of 8 tests] and 14 µM [sample B, 1 test]
TGI (OVCAR-8 ovarian): > 25 µM, 19.2 µM, 50.6 µM, 12 µM, 11.5 µM [sample A] and 13 µM [sample B]
TGI (PC-3 prostate): > 25 µM, 10 µM, 21 µM, 8.6 µM, 9.86 µM [sample A] and 9.3 µM [sample B]
TGI (RPMI-8226 leukemia): 7.54 µM [sample A, 1 test] and 8.1 µM [sample A, mean of 14 tests] and > 25 µM [sample A, mean of 2 tests] and 32.9 µM [sample A, mean of 4 tests] and 3.27 µM [sample B, 1 test]
TGI (RXF 393 renal): > 25 µM, 9.03 µM, 10.2 µM, 8.63 µM [sample A] and 5.96 µM [sample B]
TGI (SK-MEL-2 melanoma): > 25 µM, 13.2 µM, 9.11 µM, 14.9 µM [sample A] and 12.5 µM [sample B]
TGI (SK-MEL-5 melanoma): 4.37, 4.21, 7.57, 6.87 µM [sample A] and 1.6 µM [sample B]
TGI (SN12C renal): 26.9 µM, 10.6 µM [sample A, 1 test] and 16.4 µM [sample A, mean of 14 tests] and > 25 µM [sample A, mean of 2 tests] and 8.07 µM [sample A, mean of 6 tests] and 10.2 µM [sample B, 1 test]
TGI (SR leukemia): > 25 µM, 4.49 µM, 11.6 µM, 34.9 µM [sample A] and 5.29 µM [sample B]
TGI (T-47D breast): > 25 µM, 12.3 µM, 21.4 µM, 9.64 µM, 5.89 µM [sample A] and 7.61 µM [sample B]
TGI (TK-10 renal): > 25 µM, 15.1 µM, 23.2 µM, 8.37 µM, 13.3 µM [sample A] and 11.1 µM [sample B]
TGI (UACC-257 melanoma): > 25 µM, 7.23 µM, 8.14 µM, 8.8 µM, 8.37 µM [sample A] and 2.74 µM [sample B]
TGI (UACC-62 melanoma): > 25 µM, 15.8 µM, 15.5 µM, 10.4 µM, 13.1 µM [sample A] and 6.65 µM [sample B]
TGI (UO-31 renal): > 25 µM, 17.3 µM, 58.4 µM, 8.99 µM, 9.47 µM [sample A] and 12.4 µM [sample B]
